Reference: publication PMC12136788
The list shows a part of the results.

T1: UNK ZnF1-3 (human, UniProt Q9C0B0 31-174)
T1 sequence: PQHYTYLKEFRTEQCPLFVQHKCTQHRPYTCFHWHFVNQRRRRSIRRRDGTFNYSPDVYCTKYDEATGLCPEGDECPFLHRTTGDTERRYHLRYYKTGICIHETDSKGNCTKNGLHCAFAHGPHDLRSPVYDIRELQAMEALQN

B1: chr1:225611761:225611762:-_ENSG00000143815_ENST00000272163|hu_mus|hu_hu_hu_mus_True|48_98 (ssRNA)
RNA: GGGAGUUCUACAGUCCGACGAUCCCAGGCCAUCGGCCUCUUACCACUUCACCCUCAACAAACUUCCUACUUGGCAUUUUCUAAAAUUAACCUGCGCGCGCUCCGGCGGGAACUCCAGCCACUCCAGGACAGUCACCAGCAGCCCAACAGAGGAUUGAGCAUCA
B2: chr18:35108781:35108782:-_ENSMUSG00000024359_ENSMUST00000025217|mus_mus|FALSE|FALSE (ssRNA)
RNA: GGGAGUUCUACAGUCCGACGAUCGAGUUUUCCAUGAGCCUCAACCCAAGCAUCACCAUUGGAGGCACGGACAAUUUUAAAAGGAACAUUCUUAGUGUCUUUCUGUACUUCAGGGUCAUCAUAUCGUCGUCCAAUAAGACGCUUCAACAGAGGAUUGAGCAUCA
B3: chr19:41288738:41288739:-_ENSMUSG00000025016_ENSMUST00000025989|mus_hu|FALSE|FALSE (ssRNA)
RNA: GGGAGUUCUACAGUCCGACGAUCAACUUGGGGGGAAAAAAGAUAAUCACUUUAGACAUUCAGUUAAAAUGUAGUUUAUCUAAAUCUCAAAAUGUUUAAUAAAAACAAGUAUCUUCUCCAUUUAACACUUUGCUUUCUAACUGUCAACAGAGGAUUGAGCAUCA
B4: chr4:48853911:48853912:+_ENSG00000109180_ENST00000264312|hu_hu|FALSE|FALSE (ssRNA)
RNA: GGGAGUUCUACAGUCCGACGAUCAGCAGAUUCAUUCAUAGAAGAACUGAAUGGAAUUGGCUCAUAAUGAGGAAGCAUUUCUAUGUUGUCUGCUGCUGGGGAUGUCACAAAAGAUGAUUGACCACUCACACUUGAGUCAUAUUUCAACAGAGGAUUGAGCAUCA
B5: chr10:85910540:85910541:+_ENSG00000165678_ENST00000372134|perfect_dup|motif|central (ssRNA)
RNA: GGGAGUUCUACAGUCCGACGAUCUUCUGCACGCUUGAUUACUUUCUGGGUAUCAUACAGAAGGAACAUGCUGAAAAGAACGGAUCCACCGUACAUUGCCACUGAGUAAAGAGUGGCACCAGCCACGGUGGUAGGUGGAAGAAACAACAGAGGAUUGAGCAUCA
B6: chr16:94664741:94664742:+_ENSMUSG00000040785_ENSMUST00000117648|mus_hu|mus_mus_mus_hu_False|18_108 (ssRNA)
RNA: GGGAGUUCUACAGUCCGACGAUCUGGCAUGGAUCUUGGUAGCUGAUAUUCAGGAGAAAGGCUGGCCAAGGGUGUAUAUAUGCUGGUGUACUGGGGCAAACCUGGUAACACGUUUAUGUACGCUGGUGGUGUCUGGGUGAUAUCCAACAGAGGAUUGAGCAUCA
B7: chr11:110355629:110355630:+_ENSMUSG00000020623_ENSMUST00000020949|mus_mus|FALSE|FALSE (ssRNA)
RNA: GGGAGUUCUACAGUCCGACGAUCAUGGAUAACAGACAGCUUACUGUGUAAAUGUUCUAACGCUUUUACAAUAGAAACUGCUAUCUUUCCUAAGAUAUCCUCUGGAAUUGUUUGGCCUUUAUCAAUAACUUGUUUGUAGAAUUUCAACAGAGGAUUGAGCAUCA
B8: chr18:52893488:52893489:-_ENSG00000196628_ENST00000354452|hu_hu|hu_hu_hu_mus_True|8_98 (ssRNA)
RNA: GGGAGUUCUACAGUCCGACGAUCUAUUUAGACCAUUUCAAUGGAUUUAUGGCAUUUACUCAGUGCUGAUAGGUGGAAAAACUACUUCAACAGGGAUUUUUUUUUUCCUUAAUACAUGCCAAGAUUGGUGUGGCUGUAAAACAGCAACAGAGGAUUGAGCAUCA
B9: chr11:116106860:116106861:-_ENSMUSG00000020780_ENSMUST00000021133|mus_hu|FALSE|FALSE (ssRNA)
RNA: GGGAGUUCUACAGUCCGACGAUCAUGACCCUGCACACAUUUACCAGAAGACAACAGGGUGCUCUCCUGACACGCUGCUUAAGAACGUGUACAGACACAAGAUGUAGGAAUGCAGGGCCGAAGAUGUUAAACUCUUGCCCCGGGCAACAGAGGAUUGAGCAUCA
B10: chr1:212142006:212142007:-_ENSG00000143493_ENST00000366992|hu_mus|FALSE|FALSE (ssRNA)
RNA: GGGAGUUCUACAGUCCGACGAUCGAGAUCGAUCCGGAGCUUUACAAACUCACACUGAAAGCUCAAAGGAUUCAGCGGUGUGCUGGCGGCCGUUAGGGAGGCGAUCCCUUUGUGGUAGAACUUCAAAGACUCAGCAAUGCAGGACAACAGAGGAUUGAGCAUCA
B11: 134723116_134725800_2128_CDS_ENSMUSG00000060261_ENSMUST00000173341|mouse|control|control (ssRNA)
RNA: GGGAGUUCUACAGUCCGACGAUCAGGAGGCAAAUAGGACACAACUAGCUCAGGCUUUUUAACAACAAACUUGAUCUUAUUGCUGCCACGGACAAUCCUCUCGAGGCGUGGAAUCCCAAACCAGGUAGGGCUUCGGAAGGGGAUCAACAGAGGAUUGAGCAUCA
B12: chr18:6437031:6437032:-_ENSMUSG00000024240_ENSMUST00000028100|mus_mus|FALSE|FALSE (ssRNA)
RNA: GGGAGUUCUACAGUCCGACGAUCUGCAGUACUGUACAGAUAAUUGCUGUAUUCUUAAUUUACAGAUGUUGAUUUUUUCCUAUUAACAAUAAGAAAAGAAAGGUUGAAGCACGAGAGAUUCGAGAGCUGCGCAGUGCUGCCGAGCAACAGAGGAUUGAGCAUCA
B13: chr2:46810187:46810188:+_ENSG00000119729_ENST00000238738|hu_mus|FALSE|FALSE (ssRNA)
RNA: GGGAGUUCUACAGUCCGACGAUCGAAACGAAUAAUACUUUACUGUCUUGGUUCCUUCAGAUCAUAGGUUUGACAACUUAGCUCAUGUUAACUAUACAGUUUCUUCCAAUUCUAUCUAAAAACAGACCAAAACUAAAUGGGAAACAACAGAGGAUUGAGCAUCA
B14: chr7:79842110:79842111:+_ENSG00000127955_ENST00000351004|hu_hu|FALSE|FALSE (ssRNA)
RNA: GGGAGUUCUACAGUCCGACGAUCUAUAGUGAGAGGGCUCUUUUUGAUUUUUUCUUCAAAGAGAUCCUUCUUGUUUAGAAAAAGUAUAAUGGAUGUAUCUGUAAACCACUUGUUGUUACAUAUGCUGUCAAACAAUUUCAUGCUCAACAGAGGAUUGAGCAUCA
B15: chr11:46405157:46405158:+_ENSG00000110492_ENST00000395566|hu_hu|hu_hu_hu_mus_False|28_108 (ssRNA)
RNA: GGGAGUUCUACAGUCCGACGAUCCCCUUAGGGGUGGGGGCACUUGGUGUGGGCGUGAGAGGACAGGCGUGAUUGACAGAGCUGACAGGAAGACAAAAGGCACUGGUGGGUCACAUCUUGGGCCUGUGGGAGAGGAGGGCUCCGCAACAGAGGAUUGAGCAUCA
B16: chr2:113286301:113286302:+_ENSG00000114999_ENST00000233336|hu_hu|motif|central (ssRNA)
RNA: GGGAGUUCUACAGUCCGACGAUCAGCUGGCUGGGUCUGAGGUUGCUCCACAUCUGGGGGUGGGAAGACACUGGAAAUGGCGGUGUCCACGAUGCCUUGGCACAGUUCUGCAUAGAGCUUCUGAGCACAUGCAGGGGCACCGUUCAACAGAGGAUUGAGCAUCA
B17: 175938933_175939053_2160_3pUTR_ENSG00000115966_ENST00000264110|human|control|control (ssRNA)
RNA: GGGAGUUCUACAGUCCGACGAUCAAAUGAUAAUACUACUACCGUCACAGUUGAGGGUUAAGGGGUGGUCAAAAGAAAUGGAAGUGGGAAGAAAGAUUCAGUAACACCCCCAUUUAUUAAAACACCAGCAAAUUAAAAGUGAAACAACAGAGGAUUGAGCAUCA
B18: chr7:106416527:106416528:+_ENSMUSG00000055407_ENSMUST00000127492|mus_mus|FALSE|FALSE (ssRNA)
RNA: GGGAGUUCUACAGUCCGACGAUCGCAGGCCCUUGUGAUGCACGGCCACGCCAUGUUAGCCACAAAGCCUUUUUGUGGUCCUAAAUCAAAUCUCCAAUCUCCCUUUAACCCCAACCCAGACCCGCCAAUGUGGUUCCCACCGCUCAACAGAGGAUUGAGCAUCA
B19: chr2:73747301:73747302:-_ENSMUSG00000018770_ENSMUST00000018914|mus_mus|motif|central (ssRNA)
RNA: GGGAGUUCUACAGUCCGACGAUCAUAACCAAUGAUAAGACUGCCAAAGACUGUUCCAAUACCAGCACCAGAACCAGCAACUCCGGCUGUUGCAGCACCUGCACCAAUGAAUUUGGCAGCAGUAUCAAUGUCUCUGCUGAUUACCAACAGAGGAUUGAGCAUCA
B20: chr14:45754706:45754707:-_ENSMUSG00000021830_ENSMUST00000139526|mus_mus|FALSE|FALSE (ssRNA)
RNA: GGGAGUUCUACAGUCCGACGAUCGUAACUAGACGGAAGAUAUGCAGAUCCCACUGUGCUACAGGCUACUACAAGGUUGCUAAUUAUGCAACCUUGGUGACUAAUGACAUUAAAAGAAAGACAAUUCUUUGAUGGAGGAUCCAUCAACAGAGGAUUGAGCAUCA
B21: chr19:58870598:58870599:-_ENSMUSG00000025092_ENSMUST00000066285|mus_mus|FALSE|FALSE (ssRNA)
RNA: GGGAGUUCUACAGUCCGACGAUCUCUUCGAUUAAUAAUGCAUUUUUGACUCCUGUUUAUAUUGGUGCAUGCAAUUCUUUGCUACCCUGGCAAUUAACCAGACCUGGACUCUAAAAGCUAAACUUGGUCUAAGUAACAUUCUAACAACAGAGGAUUGAGCAUCA
B22: 119759185_119759305_4493_3pUTR_ENSMUSG00000025583_ENSMUST00000147781|mouse|control|control (ssRNA)
RNA: GGGAGUUCUACAGUCCGACGAUCAUACCUUGUAGCAGGAGAGGCCUUCCCUCUCUUCUACCCUCUCUCUUCCCCCAAUUGCUCUUAUCCAUUUCCCAGGACUGGCAGCACACUCUGAGAGGACAGUGGGGCUGGGCCAUGGCCCAACAGAGGAUUGAGCAUCA

The binders below were run against T1, UNK ZnF1-3 (assay: nsRBNS (natural sequence RNA bind-n-seq); RBNS binding buffer (assumed for nsRBNS): 25 mM Tris pH 7.5, 150 mM KCl, 3 mM MgCl2, 0.01% Triton X-100, 500 ug/ml BSA, 20 U/ml SUPERase-In, 4 C; UNK is unkempt and MSI1 is Musashi-1; names of the RNAs are library labels; protein concentration not given here; high values mean tight binding).

Binder | binding signal [enrichment R]
B1 | 1.62
B2 | 1.03
B3 | 0.808
B4 | 2.5
B5 | 1.57
B6 | 0.942
B7 | 0.566
B8 | 0.945
B9 | 1.02
B10 | 1.18
B11 | 0.963
B12 | 0.891
B13 | 0.866
B14 | 0.443
B15 | 3.18
B16 | 1.26
B17 | 2.02
B18 | 0.831
B19 | 1.06
B20 | 1.19
B21 | 0.926
B22 | 1.05
